42 compounds from the supplement of paper PMC9135407 can be followed below.

The test system of this experiment is primary human hepatic stellate cells (donor 1). Briefly: scaled lipid accumulation score (0 = DMSO-like, 1 = nortriptyline-like); higher = stronger HSC inactivation (lipid re-accumulation), active = hit call of the paper. Conditions: 48 h. As to the method: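 Primary lipid accumulation screen in primary human hepatic stellate cell myofibroblasts (donor 1, passage 8) in 384-well plates. 100 nL of library compound was pin-transferred into 30 µL medium in duplicate, and cells were treated for 48 h. The 'Scaled' score combines distance from plate baseline, toxicity and reproducibility penalties, and is normalised to nortriptyline (positive) and DMSO (negative) controls on each plate. A hit is defined as scaled >0.85 or among the top 3 wells per plate.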

[1] abbreviates: library stock concentration: 10 mM.
The mark [2] stands for this setting: library stock concentration: 1 mM.
The mark [3] stands for this setting: library stock concentration: 3.33 mM.

Structures are written as SMILES. Several values for one entry are separate records, joined by “and”; a condition that tells them apart may be missing. Identical values can stand only once. Counter-ions that a name gives are not always drawn. The campaign covered roughly 5,800 compounds. About 620 (11%) showed activity.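 How the source made its calls: active = score above a cut-off or among the top three wells of a plate; in these data no inactive exceeds 0.85.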 This is a selection; strong and weak results do not stand in their true shares.

As to `O=c1[nH]oc2c1CCNC2` [THIP Hydrochloride], the “scaled lipid accumulation score” value is inactive: ≤ 0.
For `O=c1[nH]oc2c1CCNC2` [THIP hydrochloride], under setting [1], the “scaled lipid accumulation score” value is inactive: ≤ 0.
For the compound `C[C@H](N)C(=O)N[C@@H](C)C(=O)N[C@@H](Cc1ccccc1)C(=O)CCl`, for the setting “library stock concentration: 14.7 mM”, the “scaled lipid accumulation score” value is inactive: 0.708.
On to `CCCCC/C=C\C/C=C\C/C=C\C/C=C\CCCC(=O)OCCN` [O-Arachidonoyl Ethanolamine (hydrochloride)], for which the “scaled lipid accumulation score” value under setting [2] is inactive: 0.049.
In the case of `O=C(O)/C=C\C(=O)O.O=C1/C(=C/c2ccccc2)C[C@@]2(O)C3Cc4ccc(O)c5c4[C@@]2(CCN3CC2CC2)[C@H]1O5` [BNTX maleate], the “scaled lipid accumulation score” value under setting [1] is active: 0.851.
Take `c1cncc([C@@H]2CCCCN2)c1` [Anabasine]: the “scaled lipid accumulation score” value is inactive: ≤ 0.
Take `COc1cc(C(O)CN)ccc1O` (centres undefined): under setting [1], the “scaled lipid accumulation score” value is inactive: ≤ -0.055.
On to `CC(=O)O[C@H]1C(=O)[C@@]2(C)[C@H]([C@H](OC(=O)c3ccccc3)[C@]3(O)C[C@H](O)C(C)=C1C3(C)C)[C@]1(OC(C)=O)CO[C@@H]1C[C@@H]2O` [Baccatin iii], for which the “scaled lipid accumulation score” value under setting [1] is inactive: ≤ 0.
In the case of `CC(C)(O)[C@@H]1[C@H]2OC(=O)[C@@H]1[C@]1(O)C[C@H]3O[C@]34C(=O)O[C@H]2[C@]14C` [Picrotin], the “scaled lipid accumulation score” value under setting [1] was inactive: 0.167.
As for `C[C@@H]1C[C@@H]([C@H](O)CC2CC(=O)NC(=O)C2)C(=O)[C@@H](C)C1` [Cycloheximide], the “scaled lipid accumulation score” value is inactive: 0.724. The “scaled lipid accumulation score” value (library stock concentration: 7.1 mM) is inactive: 0.685. The “scaled lipid accumulation score” value under setting [1] was inactive: 0.767. In addition, the “scaled lipid accumulation score” value (library stock concentration: 17.8 mM) is inactive: 0.647.
For the compound `CCCCC/C=C\CC1OC1CCCCCCCC(=O)O` (centres undefined) [Leukotoxin A (9,10-EODE)], the “scaled lipid accumulation score” value (library stock concentration: 100 uM) was inactive: 0.026.
Take `O=C(O)c1nn(Cc2ccc(Cl)cc2Cl)c2ccccc12` [Lonidamine]: the “scaled lipid accumulation score” value is inactive: ≤ 0 under setting [3]; inactive: ≤ 0 and inactive: 0.005 and inactive: ≤ -0.006 under setting [1].
With `COc1ccc2c(c1OC)C(=O)O[C@@H]2[C@H]1c2cc3c(cc2CCN1C)OCO3` [Hydrastine hydrochloride], the “scaled lipid accumulation score” value is inactive: 0.118.
Take `COc1ccc2c(c1OC)C(=O)O[C@@H]2[C@H]1c2cc3c(cc2CCN1C)OCO3` [Hydrastine (1r, 9s)]: for the setting “library stock concentration: 5.2 mM”, the “scaled lipid accumulation score” value was inactive: ≤ 0.
Regarding `Cc1cc(C(C#N)c2ccc(Cl)cc2)c(Cl)cc1NC(=O)c1cc(I)cc(I)c1O` (centres undefined) [Closantel], the “scaled lipid accumulation score” value (library stock concentration: 3 mM) was inactive: ≤ 0, the “scaled lipid accumulation score” value under setting [3] is inactive: ≤ 0 and the “scaled lipid accumulation score” value under setting [1] is inactive: ≤ -0.001.
Turning to `CC(C)(C)c1cc(C=C(C#N)C#N)cc(C(C)(C)C)c1O` [Tyrphostin 9], the “scaled lipid accumulation score” value is, setting by setting: under setting [3], inactive: 0.175; (library stock concentration: 17.7 mM) inactive: 0.752.
On to `CC(C)(C)c1cc(C=C(C#N)C#N)cc(C(C)(C)C)c1O` [Tyrphostin A9], for which, under setting [1], the “scaled lipid accumulation score” value is inactive: 0.728.
For the compound `O=C(O)C(Cl)Cl`, under setting [1], the “scaled lipid accumulation score” value is inactive: ≤ 0.
In the case of `CCCCOC(=O)c1ccccc1C(=O)OCCCC` [Dibutyl phthalate], for the setting “library stock concentration: 7.2 mM”, the “scaled lipid accumulation score” value was inactive: 0.017.
As to `CCOC(=O)c1ncn2c1[C@@H]1CCCN1C(=O)c1cc(OC)ccc1-2`, under setting [1], the “scaled lipid accumulation score” value was inactive: ≤ -0.041 and inactive: 0.027.
As for `CC[C@@H](CO)NC(=O)[C@@H]1C=C2c3cccc4[nH]cc(c34)C[C@H]2N(C)C1` [Methylergonovine maleate], the “scaled lipid accumulation score” value is, setting by setting: (library stock concentration: 4.4 mM) inactive: ≤ -0.001; under setting [1], inactive: ≤ 0 and inactive: 0.136.
Take `CC[C@@H](CO)NC(=O)[C@@H]1C=C2c3cccc4[nH]cc(c34)C[C@H]2N(C)C1` [Methylergometrine maleate]: the “scaled lipid accumulation score” value was inactive: ≤ 0. In addition, the “scaled lipid accumulation score” value under setting [1] is inactive: ≤ 0.
Turning to `CCC1(C2=NCCN2)Cc2ccccc2O1` (centres undefined) [Efaroxan hydrochloride], the “scaled lipid accumulation score” value under setting [1] is inactive: 0.514 and inactive: ≤ 0.
For `CCC1(C2=NCCN2)Cc2ccccc2O1` (centres undefined) [Efaroxan], the “scaled lipid accumulation score” value (library stock concentration: 9.2 mM) was inactive: 0.018.
In the case of `COc1ccc2c(c1OC)C(=O)O[C@H]2[C@H]1c2cc3c(cc2CCN1C)OCO3` [1r,9s-hydrastine], the “scaled lipid accumulation score” value under setting [1] is inactive: ≤ 0.
As to `CN(C)c1ccc(/C=C2\CCCN=C2c2cccnc2)cc1` [DMAB-anabaseine dihydrochloride], the “scaled lipid accumulation score” value under setting [1] is inactive: 0.17.
As to `CN(C)C(=S)SSC(=S)N(C)C` [Thiram], the “scaled lipid accumulation score” value (library stock concentration: 8.3 mM) was active: 0.965.
As for `C=C1[C@@H](C)[C@H]2[C@H](Cc3ccccc3)NC(=O)C23[C@H](OC(C)=O)/C=C/[C@](C)(O)C(=O)[C@@H](C)C/C=C/[C@H]3[C@@H]1O` (some centres undefined) [Cytochalasin D], the “scaled lipid accumulation score” value (library stock concentration: 9.9 mM) was active: 0.918.
In the case of `Cc1onc(O)c1CC(N)C(=O)O` (racemic) [(RS)-AMPA hydrobromide], the “scaled lipid accumulation score” value under setting [1] is inactive: 0.001.
With `Cc1onc(O)c1CC(N)C(=O)O` (racemic), the “scaled lipid accumulation score” value under setting [1] was inactive: ≤ 0.
As to `NC(=S)N/N=C/c1coc2ccccc2c1=O.[Cl][Cu][Cl]`, the “scaled lipid accumulation score” value under setting [1] was inactive: 0.073.
On to `COc1cc(CNC(=O)CCCCCCC(C)C)c(I)cc1O`, for which, under setting [2], the “scaled lipid accumulation score” value was inactive: ≤ 0.
Turning to `CN1CCC2(C)c3cc(O)ccc3N(C)C12` (single isomer, unassigned; (-)) [(-)-Eseroline fumarate salt], the “scaled lipid accumulation score” value was inactive: 0.065.
With `O=C(NCCN1CCC2(CC1)C(=O)NCN2c1ccccc1)c1ccc2ccccc2c1`, the “scaled lipid accumulation score” value under setting [2] is inactive: ≤ 0.
Consider `CC(=O)[C@H]1CC[C@H]2[C@@H]3CC[C@H]4C[C@H](O)CC[C@]4(C)[C@H]3CC[C@]12C` [5alpha-Pregnan-3alpha-ol-20-one], for which, under setting [1], the “scaled lipid accumulation score” value was inactive: ≤ 0.
With `CC(C)(C)c1cc(C=C(C#N)C#N)cc(Br)c1O`, the “scaled lipid accumulation score” value is, setting by setting: under setting [3], inactive: ≤ 0; under setting [1], inactive: ≤ 0.
Turning to `CC(C)[C@]12O[C@H]1[C@@H]1O[C@]13[C@]1(O[C@H]1C[C@H]1C4=C(CC[C@@]13C)C(=O)OC4)[C@@H]2O`, the “scaled lipid accumulation score” value under setting [1] was inactive: ≤ 0.
`CC(C)[C@]12O[C@H]1[C@@H]1O[C@]13[C@]1(O[C@H]1C[C@H]1C4=C(CC[C@@]13C)C(=O)OC4)[C@@H]2O` [Triptolide (PG490)]: the “scaled lipid accumulation score” value was inactive: ≤ 0 under setting [3] and inactive: 0.22 under setting [1].
With `CCOC(=O)CC(SP(=S)(OC)OC)C(=O)OCC` (centres undefined), the “scaled lipid accumulation score” value under setting [1] was inactive: ≤ 0.
As to `NCC(CC(=O)O)c1ccc(Cl)cc1` (centres undefined) [Baclofen], the “scaled lipid accumulation score” value (library stock concentration: 9.4 mM) was inactive: ≤ 0 and the “scaled lipid accumulation score” value under setting [1] is inactive: ≤ 0.
In the case of `NCC(CC(=O)O)c1ccc(Cl)cc1` (centres undefined), the “scaled lipid accumulation score” value under setting [1] was inactive: 0.201.
With `CN1CC[C@@]2(C)c3cc(O)ccc3N(C)C12` (single isomer, unassigned; (-)) [(-)-Eseroline fumarate], the “scaled lipid accumulation score” value under setting [1] was inactive: 0.246.
